# Results from patent US20100104509A1, “HUMAN ANTIBODIES THAT BIND CD19 AND USES THEREOF” (Medarex, Inc., priority 2006, published 2010).
# T1: CHO-CD19 cell line (Homo sapiens, UniProt P15391)
# T1 construct: an expression plasmid containing the full length cDNA encoding the transmembrane form of CD19; expressed in transfected cells; host or cells: CHO cells
# T1 sequence (P15391 20-556): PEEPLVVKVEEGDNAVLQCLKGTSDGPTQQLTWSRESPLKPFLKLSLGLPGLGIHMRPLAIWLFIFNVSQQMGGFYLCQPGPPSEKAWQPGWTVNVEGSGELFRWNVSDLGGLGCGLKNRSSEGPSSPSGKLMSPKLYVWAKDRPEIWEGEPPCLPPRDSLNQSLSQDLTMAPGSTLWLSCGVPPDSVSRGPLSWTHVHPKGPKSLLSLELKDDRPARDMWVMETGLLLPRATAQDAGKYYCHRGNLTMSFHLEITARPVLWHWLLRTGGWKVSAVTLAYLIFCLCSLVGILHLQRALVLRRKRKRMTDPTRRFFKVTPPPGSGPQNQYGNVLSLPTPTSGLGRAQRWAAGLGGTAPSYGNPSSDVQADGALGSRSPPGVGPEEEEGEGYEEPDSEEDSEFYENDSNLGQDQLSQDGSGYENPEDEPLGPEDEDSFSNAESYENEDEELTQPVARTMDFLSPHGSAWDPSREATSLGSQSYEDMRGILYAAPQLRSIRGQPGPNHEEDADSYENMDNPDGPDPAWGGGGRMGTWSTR
# T2: Raji B cell line (Homo sapiens, UniProt P15391)
# T2 construct: the CD19 protein is expressed on the surface of tumor cell lines of B cell origin; host or cells: Raji (human Burkitt's lymphoma B cell line)
# T2 sequence (P15391 20-556): T1 sequence (P15391 20-556)
# T3: Daudi B cell line (Homo sapiens, UniProt P15391)
# T3 construct: the CD19 protein is expressed on the surface of tumor cell lines of B cell origin; endogenous in cells; host or cells: Daudi B tumor cell line
# T3 sequence (P15391 20-556): T1 sequence (P15391 20-556)
# T4: Raji B tumor cells (Homo sapiens, UniProt P15391)
# T4 construct: the CD19 protein is expressed on the surface of tumor cell lines of B cell origin; host or cells: Raji (human Burkitt's lymphoma B cell line)
# T4 sequence (P15391 20-556): T1 sequence (P15391 20-556)
# B1: 47G4: human monoclonal anti-CD19 antibody, VH SEQ ID NO: 2 and VL SEQ ID NO: 10 (antibody, listed as Homo sapiens, V domains shown)
# VH: QVQLVQSGAEVKKPGSSVKVSCKDSGGTFSSYAISWVRQAPGQGLEWMGGIIPIFGTTNYAQQFQGRVTITADESTSTAYMELSSLRSEDTAVYYCAREAVAADWLDPWGQGTLVTVSS
# VL: [about 100 residues not printed]FGPGTKVDIK
# Tests used:
# human CD19 = experiment: ELISA binding to CD19-Fc fusion protein; settings: CD19-Fc fusion protein coated at 1.0 μg/ml
# CHO-CD19 cell line = target: T1, CHO-CD19 cell line; experiment: Flow cytometry binding to CD19-transfected CHO cells
# Raji B cell line = target: T2, Raji B cell line; experiment: Flow cytometry binding to Raji cells
# Description: Binding of the CD19 HuMAbs by flow cytometry to the B cell tumor lines Raji and Daudi, or to a CHO-CD19 transfected cell line was assessed. CHO cells were transfected with an expression plasmid containing the full length cDNA encoding the transmembrane form of CD19. […] A known murine anti-CD19 antibody was used as a positive control. The cells were washed and detected by either a phycoerythrin-labeled anti-human or anti-mouse secondary antibody and analyzed by flow cytometry. The results for binding to the CHO-CD19 cell line, Daudi B cell line, Raji B cell line and an expanded binding set against the Raji B cell line are shown in FIGS. 25A, 25B, 25C and 25D, respectively. […] All results are shown as measured by the geometric mean fluorescent intensity (GMFI) of staining.
# Daudi B cell line = target: T3, Daudi B cell line; experiment: Flow cytometry binding to Daudi cells; settings: Daudi B tumor cell line
# CHO-CD19 cells = experiment: Hum-Zap internalization assay (3H-thymidine); format: cell-based; settings: antibody from 30 nM 1:3 dilutions, Hum-Zap 11 nM, 48 hours
# Raji B tumor cells = target: T4, Raji B tumor cells; experiment: Hum-Zap internalization assay (3H-thymidine); format: cell-based; settings: antibody from 30 nM 1:3 dilutions, Hum-Zap 11 nM, 48 hours
# [1] = Differential scanning calorimetry; format: physicochemical; settings: 2.3 μM in PBS pH 7.4, 30 to 95° C. at 1° C./min
# Description: The thermal stability of the anti-CD19 monoclonal antibodies were compared using calorimetric analysis of their melting temperatures.
# Calorimetric measurements of melting Temperatures™ were carried out on a VP-Capillary DSC differential scanning microcalorimeter platform that is combined with an autosampler (MicroCal LLC, Northampton, Mass., USA). Sample cell volume is 0.144 mL. Denaturation data on the glycosylated and deglycosylated forms of the antibodies was obtained by heating the samples, at a concentration of 2.3 μM, from 30 to 95° C. at a rate of 1° C./min. The protein samples were present in phosphate-buffered saline (PBS) at pH 7.4. The same buffer was used in the reference cell to obtain the molar heat capacity by comparison. The observed thermograms were baseline corrected and normalized data analyzed based on a 2-state model, using the software Origin v7.0.
# [2] = Chemical denaturation by fluorescence spectroscopy; format: physicochemical; settings: guanidinium hydrochloride in PBS, 24 hours, 2 μM antibody
# Description: The stability of anti-CD19 monoclonal antibodies were compared by measuring the midpoint of chemical denaturation by fluorescence spectroscopy.
# Fluorescence measurements of chemical denaturation were performed on a SPEX Fluorolog 3.22 with a Micromax plate reader (SPEX, Edison, N.J.). The measurements were performed on antibody samples that had been left for 24 hours to equilibrate in 16 different concentrations of guanidinium hydrochloride in PBS buffer. The measurements were made in black, low volume, non-binding surface 384-well plates (Corning, Acton, Mass.) and required 2 μM of antibody in a well volume of 12 μL Fluorescence was excited at 280 nm and the emission spectra were measured between 300 and 400 nm. The scan speed was 1 second per nm and slits were set to 5 nm bandpass. A buffer blank was performed using PBS and automatically subtracted from the data.
molecule,measurement,setting,value
B1,binding to human CD19 by ELISA,human CD19,specifically binds to human CD19; also recorded: specifically bound to the human CD19 peptide
same,binding by flow cytometry (GMFI),CHO-CD19 cell line,bound to the CHO-CD19 cell line
same,binding by flow cytometry (GMFI),Raji B cell line,bound to the Raji B cell line
same,binding by flow cytometry (GMFI),Daudi B cell line,shown to bind the Daudi B tumor cell line
same,3H-thymidine incorporation (internalization with Hum-Zap),CHO-CD19 cells,antibody concentration dependent decrease
same,3H-thymidine incorporation (internalization with Hum-Zap),Raji B tumor cells,antibody concentration dependent decrease
same,Thermo Stability Tm1,[1],67.2 °C
same,Unfolding Midpoint,[2],1.68 M

# “Also recorded” adds a separate entry of the source.
